Assays:
[1] = biological target: human PDE11A4 (Homo sapiens, UniProt Q9HCR9); assay: biochemical; conditions: read-out: PDE11A4 % inhib@500 nM
[2] = test system: MDCK-MDR1 cells
Description: Samples were taken from the donor and receiver chambers at 120 min. Each determination was performed in duplicate.

[3] = mouse, in vivo, po, 100 mg/kg
[4] = in vitro; conditions: mouse, microsomes
[5] = in vitro; conditions: human, microsomes
[6] = biological target: PDE3A (Homo sapiens, UniProt Q14432); assay: biochemical; conditions: read-out: PDE3A % inhibition at 500 nM
[7] = biological target: T1, PDE4D3 (Homo sapiens, UniProt Q08499); assay: biochemical; conditions: read-out: PDE4D3 % inhibition at 500 nM
[8] = biological target: PDE5A (Homo sapiens, UniProt O76074); assay: biochemical; conditions: read-out: PDE5A % inhibition at 500 nM
[9] = biological target: PDE6C (Homo sapiens, UniProt P51160); assay: biochemical; conditions: read-out: PDE6C % inhibition at 500 nM
[10] = biological target: T2, PDE10A (Homo sapiens, UniProt Q9Y233); assay: biochemical; conditions: read-out: PDE10A % inhibition at 500 nM
[11] = biological target: PDE1A (Homo sapiens, UniProt P54750); assay: biochemical; conditions: read-out: PDE1A % inhibition@1 μM
[12] = biological target: PDE2A (Homo sapiens, UniProt O00408); assay: biochemical; conditions: read-out: PDE2A % inhibition@1 μM
[13] = biological target: PDE7B (Homo sapiens, UniProt Q9NP56); assay: biochemical; conditions: read-out: PDE7B % inhibition@1 μM
[14] = biological target: PDE8A (Homo sapiens, UniProt O60658); assay: biochemical; conditions: read-out: PDE8A % inhibition@1 μM
[15] = biological target: PDE9A (Homo sapiens, UniProt O76083); assay: biochemical; conditions: read-out: PDE9A % inhibition@1 μM
[16] = biological target: T2, PDE10A; conditions: 0.5 µM
[17] = biological target: T1, PDE4D3; conditions: 0.5 µM

Row | SMILES | inhibition at 0.5 µM [1] [%] | inhibition at 0.5 µM [6] [%] | inhibition at 0.5 µM [7] [%] | inhibition at 0.5 µM [8] [%] | inhibition at 0.5 µM [9] [%] | inhibition at 0.5 µM [10] [%] | further results
1 | CCc1nnc(-c2cc(-c3ccnn3CC)nc3c2c(C)nn3-c2ccccc2)s1 [4b] | 53 |  |  |  |  |  | 
2 | Cc1nn(-c2ccc(F)cc2)c2nc(-c3ccnn3C)cc(-c3nncs3)c12 [4g] |  | 0 | 24 | 33 | 51 | 28 | p-glycoprotein-mediated efflux [2]: Neither compound showed evidence of p–glycoprotein-mediated efflux; pharmacokinetic profile [3]: the profile was poor; half-life [4]: > 60 min; half-life [5]: 57 min; inhibition at 1 µM [11]: 19%; inhibition at 1 µM [12]: 40%; inhibition at 1 µM [13]: 0%; inhibition at 1 µM [14]: 19%; inhibition at 1 µM [15]: 30%
3 | CCn1nccc1-c1cc(-c2nncs2)c2c(C)nn(-c3ccc(F)cc3)c2n1 [4h] |  | 0 | 25 | 34 | 47 | 51 | p-glycoprotein-mediated efflux [2]: Neither compound showed evidence of p–glycoprotein-mediated efflux; half-life [4]: > 60 min; half-life [5]: 48 min; inhibition at 1 µM [11]: 20%; inhibition at 1 µM [12]: 40%; inhibition at 1 µM [13]: 0%; inhibition at 1 µM [14]: 19%; inhibition at 1 µM [15]: 0%
4 | CCc1nnc(-c2cc(-c3ccnn3CC)nc3c2c(C)nn3-c2ccccc2)o1 [5c] | 62 |  |  |  |  |  | 
5 | CCn1nccc1-c1cc(-c2nnc(C)o2)c2cnn(-c3ccccc3F)c2n1 [5e] | 55 |  |  |  |  |  | 
6 | Cc1nnc(-c2cc(-c3ccnn3C)nc3c2c(C)nn3-c2ccccc2Cl)o1 [5g] | 64 |  |  |  |  |  | 
7 | CCn1nccc1-c1cc(-c2nc(C)no2)c2c(C)nn(-c3ccccc3F)c2n1 [6a] | 69 |  |  |  |  |  | 
8 | Cc1noc(-c2cc(-c3ccnn3C)nc3c2c(C(F)F)nn3-c2ccccc2)n1 [6c] | 69 |  |  |  |  |  | 
9 | Cn1nccc1-c1cc(-c2nnco2)c2c(C(F)F)nn(-c3ccccc3)c2n1 [8a] |  | 14 | 73 | 44 | 77 | 34 | 
10 | CCn1nccc1-c1cc(-c2nnco2)c2c(C)nn(-c3ccccc3F)c2n1 [8b] |  | 15 | 68 | 45 | 85 | 50 | 
11 | CCn1nccc1-c1cc(-c2nnco2)c2c(C(F)F)nn(-c3ccc(F)cc3)c2n1 [8c] |  | 5 | 13 | 28 | 33 | > 50 | PDE10A % inhibition at 500 nM [16]: 65%
12 | CCn1nccc1-c1cc(-c2nnco2)c2c(C)nn(-c3ccc(F)cc3)c2n1 [8f] |  | 11 | 61 | 38 | 63 | 31 | 
13 | CCn1nccc1-c1cc(-c2nnco2)c2c(C)nn(-c3ccc(F)cc3F)c2n1 [8g] |  | 4 | 84 | 38 | 56 | > 50 | PDE10A % inhibition at 500 nM [16]: 58%
14 | CCn1nccc1-c1cc(-c2nnc[nH]2)c2c(C)nn(-c3ccccc3F)c2n1 [10a] |  | 20 | 17 | 65 | 80 | 35 | 
15 | Cc1nn(-c2ccccc2)c2nc(-c3ccnn3C)cc(-c3nnc[nH]3)c12 [10b] |  | 12 | 12 | 63 | 85 | 32 | 
16 | Cc1nn(-c2ccc(F)cc2)c2nc(-c3ccnn3C)cc(-c3nnc[nH]3)c12 [10c] |  | 10 | 10 | 55 | 83 | 41 | 
17 | Cn1nccc1-c1cc(-c2nnc[nH]2)c2c(C(F)F)nn(-c3ccccc3)c2n1 [10d] |  | 15 | 25 | 63 | 90 | 43 | 
18 | CCn1nccc1-c1cc(C#N)c2c(C(F)F)nn(-c3ccccc3)c2n1 [compound 11] |  |  | > 95 |  |  |  | PDE4D3 % inhibition at 500 nM [17]: 97%
19 | Cn1nccc1-c1cc(CC#N)c2c(C(F)F)nn(-c3ccccc3)c2n1 [compound 12] |  |  | > 95 |  |  |  | PDE4D3 % inhibition at 500 nM [17]: 95%
